From PubChem BioAssay (NCATS)
Inconclusive results, whose numbers are uncertain, are shown with a selection of clear calls. For some assays here: Potencies beside an inconclusive call are fits to weak or partial responses and may not hold up. Active and inactive are the calls of the source. Unless noted, calls follow the shape of the dose curve; as a rule, active = well fitted curve in the direction sought with a large enough effect; inconclusive = small, poorly fitted or top-dose-only effect, or another doubt; inactive = no such curve, though single readings can be large; an effect the other way counts as inactive or inconclusive.

Experiments:
[1] = Cytometric Cell-Based qHTS for Inhibitors of the mTORC1 Signaling Pathway in MEF (Tsc2-/-, p53-/-) Cells (AID 2660); also: potency is read from the fitted curve at half-maximal effect
Method in brief: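 Cells are plated, treated with compound for 24 hrs at 37 degree Celsius, then fixed, blocked and immunostained for phospho-rpS6 Ser235/236. Propidium iodide counterstain follows. Per-well % positive cells is derived from the PI-normalized phospho-S6 signal.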

[2] = High Content Imaging Cell-Based qHTS for Inhibitors of the mTORC1 Signaling Pathway in MEF (Tsc2-/-, p53-/-) Cells (AID 2666);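 also: percent of cells scored positive for phospho-rpS6 Ser235/236 immunostaining by imaging; potency is read from the fitted curve at half-maximal effect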
Method in brief: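 Tsc2-/-, p53-/- MEFs (empty-vector stable) grown in DMEM + 10% FBS were exposed to compounds for 24 hrs at 37 degree Celsius, fixed, and stained with Alexa-488 anti-phospho-rpS6 Ser235/236 plus Hoechst. Imaging gave the percentage of positive cells per well.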

[3] = molecular target: Chromobox protein homolog 1 (Homo sapiens) (UniProt P83916); experiment: qHTS Validation Assay for Inhibitors of HP1-beta Chromodomain Interactions with Methylated Histone Tails (AID 488953); also: potency is read from the fitted curve at half-maximal effect; nearly all actives have a fitted effect of over 50% in size
Method in brief: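 AlphaScreen proximity readout: streptavidin donor and Ni-chelate acceptor beads, 10 ug/mL final, 30 min dark, RT. Complex of 50 nM HP1-beta and 50 nM b-H3(1-18)K9me3 formed 30 min, then compound-treated 30 min; PBS pH 7.4/0.01% Tween-20.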

[4] = Quantitative High-Throughput drug screen in 47 multiple myeloma cell lines against the NCATS MIPE library collection: MM1S_ATCC cell viability assay (AID 1918980); also: potency is read from the fitted curve at half-maximal effect; nearly all actives have a fitted effect of over 45% in size
Method in brief: (§1)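 ATP-based luminescence (CellTiter-Glo, 5 min RT incubation) quantified surviving cells following two days' treatment with MIPE 4.0 agents at 37 °C, 5% CO2.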

[5] = Quantitative High-Throughput drug screen in 47 multiple myeloma cell lines against the NCATS MIPE library collection: KMS28PE_JCRB cell viability assay (AID 1918983); also: potency is read from the fitted curve at half-maximal effect; nearly all actives have a fitted effect of over 35% in size
Method in brief: as §1

[6] = Quantitative High-Throughput drug screen in 47 multiple myeloma cell lines against the NCATS MIPE library collection: OCIMY5_PLB cell viability assay (AID 1918988);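 also: 100% = DMSO-treated wells and 0% = wells with media alone; nearly all actives have a fitted effect of over 65% in size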
Method in brief: as §1

[7] = qHTS for Inhibitors of the vitamin D receptor (VDR): Hit Validation using a Texas Red Assay (AID 602201); conditions: VDR coregulator binding, Texas Red fluorescence polarization; agonist-bound VDR ligand-binding domain; also: potency is read from the fitted curve at half-maximal effect
Method in brief: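 After a 2-hour room-temperature incubation, polarization of Texas-Red emission was read (Ex 595 nm/Em 615 nm). Final mix contained 7 nM Texas Red, 1.5 uM VDR-LBD and LG19078.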

[8] = molecular target: Vitamin D3 receptor (Homo sapiens) (UniProt P11473); experiment: qHTS for Inhibitors of the vitamin D receptor (VDR): Hit Validation using a Beta-Lactamase Assay (AID 602202); also: % is scaled to controls: 0 for no effect and ±100 for the full control effect
Method in brief: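 Beta-lactamase reporter read-out (447 nm emission of cleaved FRET substrate, 2 h) after 18 h compound exposure of HEK293 cells carrying a VDR-GAL4 fusion and UAS reporter, stimulated with LG190178.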

[9] = qHTS for Inhibitors of the vitamin D receptor (VDR): Hit Validation using a Cytotoxicity Assay (AID 602204); conditions: cytotoxicity counter-screen, cell viability;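 also: cells co-treated with VDR agonist LG190178 at 300 nM; potency is read from the fitted curve at half-maximal effect; nearly all actives have a fitted effect of over 75% in size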
Method in brief: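 Cells were seeded at 20,000 per well and left 4 hours before compound addition. After 18 hours of exposure, an ATP-detecting luminescent reagent was added, and luminescence was read 30 minutes later. Cycloheximide at high concentration and DMSO served as controls.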

[10] = molecular target: DNA polymerase iota (Homo sapiens) (UniProt Q9UNA4); experiment: qHTS for Inhibitors of Polymerase Iota: Confirmatory Assay for Cherry-picked Compounds (AID 720496); conditions: Pol iota primer extension, TAMRA/BHQ fluorescence; also: potency is read from the fitted curve at half-maximal effect
Method in brief: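 10 nM Pol iota + cpd, 15 min RT; start w/ 50 nM (final) TAMRA reporter/BHQ-2 template primer substrate; ex 525/em 598 nm read at 0 and 10 min kinetic.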

[11] = molecular target: DNA polymerase kappa (Homo sapiens) (UniProt Q9UBT6); experiment: qHTS for Inhibitors of Polymerase Kappa: Confirmatory Assay for Cherry-picked Compounds (AID 720501); conditions: purified Pol-kappa, fluorescent strand-displacement substrate; also: potency is read from the fitted curve at half-maximal effect
Method in brief: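 Strand-displacement fluorescence read-out: TAMRA reporter released from a BHQ-2-quenched template, measured at 525/598 nm over a 10 min kinetic window. Substrate was 50 nM final; enzyme was 10 nM Pol-kappa, preincubated 15 min at room temperature with compound.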

[12] = molecular target: DNA polymerase eta (Homo sapiens) (UniProt Q9Y253); experiment: qHTS for Inhibitors of Polymerase Eta: Confirmatory Assay for Cherry-picked Compounds (AID 720502); conditions: Pol eta primer extension, TAMRA/BHQ fluorescence, 10 min; also: potency is read from the fitted curve at half-maximal effect
Method in brief: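 The reaction starts with 50 nM final labeled DNA substrate added to Pol eta (10 nM) that had sat with compound for 15 min. TAMRA emission at 598 nm is read at 0 and 10 min.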

[13] = molecular target: Rap guanine nucleotide exchange factor 3 (Homo sapiens) (UniProt O95398); experiment: Counterscreen qHTS for agonist of cAMP-regulated guanine nucleotide exchange factor 3 (EPAC1) (AID 1645889); conditions: EPAC1 Rap1B-BODIPY-GDP exchange, fluorescence; activation: at 30.8 µM (top of the series) unless noted; also: potency is read from the fitted curve at half-maximal effect; nearly all actives have a fitted effect of over 40% in size
Method in brief: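 Rap1B-BODIPY-GDP 250 nM + GDP 50 uM; cpds 7-pt, final 9.74 nM–152 uM (activator mode) or from 7.32 nM upwards (inhibitor mode); RT; FI 480/540 nm at 5 and 30 min, then ± cAMP, reread.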

[14] = qHTS Assay for Identifying Gametocytocidal Compounds (AID 743244); also: potency is read from the fitted curve at half-maximal effect; conditions: P. falciparum 3D7 stage III-V gametocytes, alamarBlue, 72 h; max response: hits give low values
Method in brief: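 Using 20,000 stage III–V 3D7 gametocytes per well, compounds were incubated 72 h under 37 °C/5% CO2. Viability was then assessed by 24 h alamarBlue reduction, measured fluorometrically at 525/598 nm.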

[15] = qHTS for differential inhibitors of proliferation of Plasmodium falciparum line D10 (AID 1877);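 also: potency is read from the fitted curve at half-maximal effect; parasites grown with compound for 72 h before DNA staining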
[16] = qHTS Validation Assay to Find Inhibitors of Chronic Active B-Cell Receptor Signaling (AID 485345; active = well fitted curve in the direction sought with a large enough effect in the main read-out, with a control signal flat, not every such curve was filed as active; inconclusive = small, poorly fitted or top-dose-only effect, or effect the other way, or a change in a side signal; inactive = no such curve, though single readings can be large or run the other way;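 also: 0% = untreated basal cells and 100% = 10 µM MG-132 proteasome inhibitor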); conditions: ABC-DLBCL cells, chronic BCR signaling reporter, CBG luciferase; at 46.1 µM (top of the series)
Method in brief: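 Read-out: ratio of filter-corrected green (IkappaBalpha fusion) to red (native) luciferase signal in doxycycline-induced TMD8 cells after 4 h at 37C. Titration spanned 46 uM–3 nM; Data were normalised to basal cells and 10 uM MG-132 wells.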

[17] = system: Zika virus NS2B-NS3 protease (unlinked); experiment: Optimization of GU AMC qHTS for Zika virus inhibitors: Unlinked NS2B-NS3 protease assay (AID 1347151); also: potency is read from the fitted curve at half-maximal effect; nearly all actives have a fitted effect of over 80% in size
Method in brief: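 Noncovalent complex of NS2B hydrophilic domain and NS3 protease domain, 25 nM final, in 10 mM Tris-HCl pH 8.0, 0.01% Tween 20. AMC fluorescence change over 15 min at room temperature was fitted to a 4-parameter Hill equation.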

[18] = molecular target: Lysine-specific demethylase 5B (Homo sapiens) (UniProt Q9UGL1); experiment: Optimization screen for KDM5B Histone Demethylases FDH coupled qHTS against the LOPAC library (AID 1347166); also: potency is read from the fitted curve at half-maximal effect
Method in brief: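 KDM5BDeltaAP (200nM final) in 50mM HEPES pH 7.5, 0.01% Tween-20 was preincubated with compound for 10 min at room temperature. A substrate mix of 12.5uM H3K4Me3, 25uM a-ketoglutarate, ascorbate, Fe2+, NAD+ and formaldehyde dehydrogenase was then added. NADH fluorescence (340/450 nm) was read initially and after 30 min.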

[19] = molecular target: Calcium and integrin-binding protein 1 (Homo sapiens) (UniProt Q99828); experiment: Validation qHTS for Identification of Calcium Integrin Binding protein 1 (CIB1) Competitor (AID 1508618); also: potency is read from the fitted curve at half-maximal effect
Method in brief: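 Displacement of FITC-alphaIIb peptide (100 nM) from CIB1-GST (1 uM) is monitored by polarization in quantitative HTS format; buffer carries 5 mM CaCl2 and 125 mM NaCl at pH 7.4, incubations are at room temperature.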

Papain (Carica papaya) = Papain (Carica papaya) (UniProt P00784); experiment: Primary qHTS assay for inhibitors of the protease papain (AID 1645873)
Tags tell the direction and shape of the fitted curve.

Sequence of UniProt Q99828 (Q99828 whole entry, looked up): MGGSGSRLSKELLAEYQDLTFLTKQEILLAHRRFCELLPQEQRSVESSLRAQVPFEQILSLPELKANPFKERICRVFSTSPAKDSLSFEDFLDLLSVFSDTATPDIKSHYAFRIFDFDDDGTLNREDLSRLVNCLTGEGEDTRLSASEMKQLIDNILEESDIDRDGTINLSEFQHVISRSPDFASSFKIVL
Sequence of UniProt Q9Y253 (Q9Y253 whole entry, looked up): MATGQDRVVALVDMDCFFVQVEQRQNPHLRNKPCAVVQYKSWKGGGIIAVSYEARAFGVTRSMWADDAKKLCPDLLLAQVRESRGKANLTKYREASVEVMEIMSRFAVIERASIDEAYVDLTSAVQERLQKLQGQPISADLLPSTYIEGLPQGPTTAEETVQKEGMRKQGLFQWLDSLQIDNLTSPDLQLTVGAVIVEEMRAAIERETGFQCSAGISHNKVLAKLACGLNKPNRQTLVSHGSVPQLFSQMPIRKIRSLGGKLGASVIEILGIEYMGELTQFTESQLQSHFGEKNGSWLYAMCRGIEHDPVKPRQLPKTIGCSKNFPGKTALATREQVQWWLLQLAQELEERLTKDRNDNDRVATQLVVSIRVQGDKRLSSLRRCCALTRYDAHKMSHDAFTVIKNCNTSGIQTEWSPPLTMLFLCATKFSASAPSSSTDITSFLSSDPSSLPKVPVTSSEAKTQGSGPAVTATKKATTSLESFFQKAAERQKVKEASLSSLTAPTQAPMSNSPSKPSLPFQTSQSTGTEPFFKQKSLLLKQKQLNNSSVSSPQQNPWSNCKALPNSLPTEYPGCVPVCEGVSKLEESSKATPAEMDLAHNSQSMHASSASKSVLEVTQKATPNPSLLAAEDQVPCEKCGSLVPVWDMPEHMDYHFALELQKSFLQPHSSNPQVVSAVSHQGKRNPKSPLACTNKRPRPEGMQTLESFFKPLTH
Sequence of UniProt P11473 (P11473 whole entry, looked up, the tested form may be a part): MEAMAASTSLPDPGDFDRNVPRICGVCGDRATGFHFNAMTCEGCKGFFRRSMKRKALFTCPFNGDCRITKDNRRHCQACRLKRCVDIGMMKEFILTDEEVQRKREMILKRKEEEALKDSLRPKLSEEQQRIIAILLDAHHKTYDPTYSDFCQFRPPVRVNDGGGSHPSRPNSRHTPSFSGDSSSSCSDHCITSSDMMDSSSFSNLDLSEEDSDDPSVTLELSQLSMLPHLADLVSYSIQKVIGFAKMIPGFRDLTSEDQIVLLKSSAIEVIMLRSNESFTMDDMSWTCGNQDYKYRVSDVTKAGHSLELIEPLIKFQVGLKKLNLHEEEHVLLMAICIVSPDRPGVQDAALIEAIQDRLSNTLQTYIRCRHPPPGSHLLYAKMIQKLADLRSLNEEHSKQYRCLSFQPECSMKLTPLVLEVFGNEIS
Sequence of UniProt Q9UNA4 (Q9UNA4 whole entry, looked up): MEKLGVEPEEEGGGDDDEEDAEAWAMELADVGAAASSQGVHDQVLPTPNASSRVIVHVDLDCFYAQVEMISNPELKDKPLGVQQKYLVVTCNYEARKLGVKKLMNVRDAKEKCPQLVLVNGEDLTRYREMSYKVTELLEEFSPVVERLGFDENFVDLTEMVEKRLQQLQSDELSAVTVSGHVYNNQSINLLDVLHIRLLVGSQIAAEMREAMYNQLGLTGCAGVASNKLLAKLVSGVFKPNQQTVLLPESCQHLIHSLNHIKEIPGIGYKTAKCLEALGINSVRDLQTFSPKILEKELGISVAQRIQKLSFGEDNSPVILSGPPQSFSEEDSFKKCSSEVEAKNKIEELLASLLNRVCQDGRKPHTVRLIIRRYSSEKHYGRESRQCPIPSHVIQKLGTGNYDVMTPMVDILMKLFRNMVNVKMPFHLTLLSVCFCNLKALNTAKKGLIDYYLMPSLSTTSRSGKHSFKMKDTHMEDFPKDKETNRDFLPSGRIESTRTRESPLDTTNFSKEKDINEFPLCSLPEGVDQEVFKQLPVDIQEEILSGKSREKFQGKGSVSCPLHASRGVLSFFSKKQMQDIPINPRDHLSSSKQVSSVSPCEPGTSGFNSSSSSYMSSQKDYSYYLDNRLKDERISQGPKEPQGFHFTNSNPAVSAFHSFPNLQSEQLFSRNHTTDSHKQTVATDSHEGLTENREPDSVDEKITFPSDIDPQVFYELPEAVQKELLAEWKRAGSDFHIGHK
Sequence of UniProt P83916 (P83916 whole entry, looked up): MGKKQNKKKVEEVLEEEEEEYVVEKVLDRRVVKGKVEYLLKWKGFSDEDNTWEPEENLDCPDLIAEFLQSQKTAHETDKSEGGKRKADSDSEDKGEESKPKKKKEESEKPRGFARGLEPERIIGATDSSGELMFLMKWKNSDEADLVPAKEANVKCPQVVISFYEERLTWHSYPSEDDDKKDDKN
Sequence of UniProt P00784 (P00784 whole entry, looked up): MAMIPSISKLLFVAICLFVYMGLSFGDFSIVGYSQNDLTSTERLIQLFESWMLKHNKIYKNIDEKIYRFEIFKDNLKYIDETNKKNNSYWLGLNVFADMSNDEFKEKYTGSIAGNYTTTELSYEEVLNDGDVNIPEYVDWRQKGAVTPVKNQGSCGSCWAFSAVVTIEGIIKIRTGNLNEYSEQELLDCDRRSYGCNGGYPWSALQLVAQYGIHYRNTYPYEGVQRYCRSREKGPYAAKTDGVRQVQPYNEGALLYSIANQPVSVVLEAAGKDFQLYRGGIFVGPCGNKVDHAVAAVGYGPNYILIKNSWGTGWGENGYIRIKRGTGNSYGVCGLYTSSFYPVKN
Sequence of UniProt Q9UBT6 (Q9UBT6 whole entry, looked up): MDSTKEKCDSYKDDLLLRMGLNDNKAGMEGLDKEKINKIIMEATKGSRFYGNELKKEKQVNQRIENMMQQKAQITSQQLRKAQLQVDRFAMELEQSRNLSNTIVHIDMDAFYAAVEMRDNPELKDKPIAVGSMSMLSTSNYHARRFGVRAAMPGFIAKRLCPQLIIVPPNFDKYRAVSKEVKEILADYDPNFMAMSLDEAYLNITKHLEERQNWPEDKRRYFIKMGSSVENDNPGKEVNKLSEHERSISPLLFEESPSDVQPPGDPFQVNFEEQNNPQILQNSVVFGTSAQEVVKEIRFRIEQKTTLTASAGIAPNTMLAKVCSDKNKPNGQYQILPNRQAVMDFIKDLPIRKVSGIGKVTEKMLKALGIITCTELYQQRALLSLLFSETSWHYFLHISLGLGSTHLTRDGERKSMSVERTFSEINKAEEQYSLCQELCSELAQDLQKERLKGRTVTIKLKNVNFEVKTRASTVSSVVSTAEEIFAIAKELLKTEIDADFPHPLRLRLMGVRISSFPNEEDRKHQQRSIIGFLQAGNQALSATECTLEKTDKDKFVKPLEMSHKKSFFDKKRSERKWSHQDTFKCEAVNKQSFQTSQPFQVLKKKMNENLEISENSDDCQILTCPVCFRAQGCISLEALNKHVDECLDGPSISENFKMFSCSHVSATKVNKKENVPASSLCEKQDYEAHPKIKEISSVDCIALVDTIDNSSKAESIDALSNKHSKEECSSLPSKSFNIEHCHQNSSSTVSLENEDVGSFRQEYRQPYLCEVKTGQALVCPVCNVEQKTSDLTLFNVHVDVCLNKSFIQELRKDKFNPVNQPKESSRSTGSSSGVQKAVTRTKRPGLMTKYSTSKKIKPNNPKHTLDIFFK
Sequence of UniProt O95398 (O95398 whole entry, looked up): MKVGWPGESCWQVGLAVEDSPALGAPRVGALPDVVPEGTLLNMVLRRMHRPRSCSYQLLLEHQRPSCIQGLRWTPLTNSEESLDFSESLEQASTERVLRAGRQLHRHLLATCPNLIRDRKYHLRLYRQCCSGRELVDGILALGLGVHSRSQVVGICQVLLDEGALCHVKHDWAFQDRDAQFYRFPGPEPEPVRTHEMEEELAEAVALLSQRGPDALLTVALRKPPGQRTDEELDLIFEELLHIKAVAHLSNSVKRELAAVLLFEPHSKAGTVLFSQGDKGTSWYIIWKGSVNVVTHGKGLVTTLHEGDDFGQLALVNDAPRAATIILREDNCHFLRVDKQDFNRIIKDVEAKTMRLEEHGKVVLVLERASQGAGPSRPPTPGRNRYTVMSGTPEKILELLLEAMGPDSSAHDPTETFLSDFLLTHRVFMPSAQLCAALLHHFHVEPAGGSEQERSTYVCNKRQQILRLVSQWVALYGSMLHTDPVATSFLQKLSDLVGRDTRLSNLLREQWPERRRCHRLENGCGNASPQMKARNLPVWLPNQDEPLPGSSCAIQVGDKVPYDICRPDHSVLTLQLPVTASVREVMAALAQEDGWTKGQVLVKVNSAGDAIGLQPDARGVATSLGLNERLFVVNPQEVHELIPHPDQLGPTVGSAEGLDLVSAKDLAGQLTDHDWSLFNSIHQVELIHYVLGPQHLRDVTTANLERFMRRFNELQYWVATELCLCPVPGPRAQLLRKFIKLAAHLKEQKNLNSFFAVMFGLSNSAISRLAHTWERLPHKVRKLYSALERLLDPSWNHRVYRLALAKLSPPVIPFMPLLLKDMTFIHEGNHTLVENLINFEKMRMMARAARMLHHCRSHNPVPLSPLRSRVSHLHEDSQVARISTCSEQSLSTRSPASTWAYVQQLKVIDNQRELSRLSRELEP

CN1CCN(CCCN2c3ccccc3Sc3ccc(C(F)(F)F)cc32)CC1
Potency [1]: inconclusive: 14.7 µM [falling, single point]
Potency [2]: inconclusive: 16.5 µM [falling, single point]
Potency [3]: active: 31.6 µM
Potency [4]: active: 1.05 µM
Potency [5]: inconclusive: 0.001 µM
Potency [6]: inactive

O=C(O)CSc1cc(NS(=O)(=O)c2ccc(Br)cc2)c2ccccc2c1O
Potency [7]: inconclusive: 3.16 µM [inhibitor, single point]
Potency [8]: inactive
Potency [9]: inconclusive: 14.1 µM [cytotoxic, single point]
Potency [10]: inconclusive: 84.4 µM [inhibitor, single point]
Potency [11]: inconclusive: 84.4 µM [inhibitor, single point]
Potency [12]: inconclusive: 95.3 µM [inhibitor, single point]
Potency [13]: inconclusive: 15.8 µM [activator, partial curve, poor fit]

O=C(N/N=C/c1ccc([N+](=O)[O-])o1)c1ccc(O)cc1
Potency [14]: active: 1.12 µM

CCOC(=O)C1=C(C)NC(C)=C(C(=O)OC)C1c1cccc(Cl)c1Cl (stereo not given)
Potency [15]: active: 15.8 µM
activity change [16]: inconclusive: -18.6%
Potency [17]: active: 26.7 µM
Potency [18]: inconclusive: 31.6 µM [inhibitor, partial curve, poor fit]
Potency [19]: inconclusive: 50.1 µM [inhibitor, partial curve]
Potency (Papain (Carica papaya)): inconclusive: 35.5 µM [inhibitor, single point]
